# According to paper PMC6919601, “Identification of Plasmodium dipeptidyl aminopeptidase allosteric inhibitors by high throughput screening” (PLoS ONE, 2019):
# About 230 (0.21%) of roughly 110,000 compounds showed an effect of 50% or more. This is one part of the list.
# Target: DPAP1 (Plasmodium falciparum, UniProt Q8IIJ9)
# Experiment: primary screen, percent inhibition; read by cleavage of a fluorogenic dipeptide substrate; higher = more effect of the substance
# Design: species or system P. falciparum D10 trophozoite lysates; single well
# 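Also: 30 min substrate incubation versus DMSO and 10 µM JCP410 controls.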
# Chain of DPAP1 (Q8IIJ9 whole entry, looked up): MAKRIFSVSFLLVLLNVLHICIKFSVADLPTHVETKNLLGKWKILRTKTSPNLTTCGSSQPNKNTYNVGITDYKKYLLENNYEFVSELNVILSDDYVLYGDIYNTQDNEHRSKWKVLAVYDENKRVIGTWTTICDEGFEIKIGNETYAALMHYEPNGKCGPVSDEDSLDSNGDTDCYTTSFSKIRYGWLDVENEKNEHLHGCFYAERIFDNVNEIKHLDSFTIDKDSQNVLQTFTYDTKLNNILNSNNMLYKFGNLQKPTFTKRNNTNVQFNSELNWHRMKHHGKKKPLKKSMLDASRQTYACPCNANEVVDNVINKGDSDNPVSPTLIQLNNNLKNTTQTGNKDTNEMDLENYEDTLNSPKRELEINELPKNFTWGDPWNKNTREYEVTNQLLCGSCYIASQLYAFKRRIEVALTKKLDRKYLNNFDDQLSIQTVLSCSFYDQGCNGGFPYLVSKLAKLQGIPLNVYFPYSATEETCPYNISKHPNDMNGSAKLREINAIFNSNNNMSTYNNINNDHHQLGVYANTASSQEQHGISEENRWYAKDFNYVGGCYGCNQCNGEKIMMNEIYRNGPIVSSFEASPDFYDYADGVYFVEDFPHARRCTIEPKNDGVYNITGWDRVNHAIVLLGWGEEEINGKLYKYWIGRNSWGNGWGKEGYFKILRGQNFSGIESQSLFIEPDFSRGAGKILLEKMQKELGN
row,Structure (SMILES),% Inhibition @ 10 uM [%]
1,CCCCOc1ccc(C2=N/C(=C/c3cccs3)C(=O)O2)cc1,0.997
2,COc1ccc(OC)c(CN2CCN(Cc3ccc(C(F)(F)F)cc3)CC2)c1,-2.84
3,CCc1cc2c(cc3c(=O)n(CC(=O)NCc4cccnc4)nc(CC)n32)s1,1.68
4,COc1ccc(CC(C)NC(C)c2cccc3ccccc23)cc1OC (centres unmarked),-5.65
5,COc1cc(C2C3=C(O)CC(C)(C)CC3=NC3=C2C(=O)CC(C)(C)C3)cc(Cl)c1OCC(=O)O (centres unmarked),1.82
6,Cc1c(O)cc2n(c1=O)-c1ccccc1C2(C)C,0.658
7,COc1cc(OC)cc(C(=O)O/N=C(\N)c2cccc(C)c2)c1,0.275
8,CCOc1ccccc1N1CCN(C(=O)CC(C)C)CC1,-3.12
9,NC(=O)NC(c1ccccc1)c1cccc(Cl)c1 (centres unmarked),-5.59
10,C=C(C)CC1(NCc2ccccc2)CCCCC1,-4.4
11,N/C(=N\OCc1ccc(Cl)cc1Cl)c1nonc1N,-1.84
12,CCOc1ccc(C2C(C#N)=C(N)Oc3[nH]nc(-c4ccc(F)cc4)c32)cc1OCC (centres unmarked),-2.56
13,CC1=C(c2ccc(F)cc2)S(=O)(=O)N=C1NC1CCCCC1C (centres unmarked),-7.46
14,COc1ccccc1NC(=O)C1=C(C)N=C2CC(C)(C)CC(O)=C2C1c1ccc(F)cc1 (centres unmarked),4.7
15,CC[C@@H](C)[C@H](NC(=O)c1cccc2ccccc12)C(=O)N[C@@H](CCc1ccccc1)C(=O)CO,-3.97
16,O=C(O)[C@]1(c2ccccc2)CC[C@H](Nc2ccccc2)C1,-2.44
17,CN(Cc1ccc(Cl)cc1Cl)CC(O)c1ccccc1 (centres unmarked),-6.62
18,COc1ccc(NS(=O)(=O)c2ccc(C)cc2)c(NC(C)=O)c1,-5.49
19,COc1ccccc1CN1CC(C(=O)NCCc2ccc(Cl)cc2)CC1=O (centres unmarked),2.18
20,CC1(C)CC(=O)C2=C(C1)OC(N)=C(C#N)C2c1cccc(Oc2ccccc2)c1 (centres unmarked),-4.67
21,CC1=C(c2ccc(C)cc2)S(=O)(=O)N=C1NCCN1CCOCC1,0.623
22,CN(C)c1ccc(C2OCC3(CO2)SC(=O)NC3=O)cc1 (centres unmarked),0.751
23,CCCc1nnc2n1Nc1nc3ccccc3nc1S2,-3.64

row,Structure (SMILES),% Inhibition @ 10 uM [%]
1,CCCc1ncc(C(O)c2ccccc2OC)n1C (centres unmarked),4.67
2,O=c1oc2c3c(ccc2c2ccccc12)OCN(Cc1ccc2c(c1)OCO2)C3,-2.57
3,Cc1cc(=O)n2nc(N(C)CC(=O)NCCC3=CCCCC3)sc2n1,-0.281
4,CCOC(=O)c1c(C)c(-c2ccccc2)n(CC(=O)NCCCN(CC)CC)c1C,-1.66
5,O=C(O)c1cccc(S(=O)(=O)N2CCc3ccccc3C2)c1,1.37
6,COc1cccc(OC)c1-c1ccc(C(=O)N[C@@H](CC(C)C)C(=O)NCC#N)cc1Cl,-6.98
7,COc1ccc(Cc2nnc(C(=O)NCCCO)o2)cc1OC,3
8,CCOC(=O)C1CCCN(Cc2ccc(-c3ccccc3)cc2)C1 (centres unmarked),4.73
9,Cc1cccc(Oc2nc3c(C)cccn3c(=O)c2/C=C(\C#N)C(=O)NC2CCCCC2)c1C,-3.23
10,COC(=O)c1c(O)cn(-c2ccc(C)c(C)c2)c1C,-0.436
11,Cc1ccc(Nc2nc(OC(C(F)(F)F)C(F)(F)F)nc(N3CCOCC3)n2)cc1,0.00178
12,COCCCNC(=O)C1c2ccccc2C(=O)N(C)C1c1cn(C)c2ccccc12 (centres unmarked),-0.668
13,CC(C)CC(C(=O)NCC#N)c1cccc(-c2csc(N3CC(C)NC(C)C3)n2)c1 (centres unmarked),3.19
14,CCc1cc2c(NCC3CCCO3)nc(C)nc2s1 (centres unmarked),-4.43
15,CC(CN1CCN(Cc2ccccc2)CC1)OC(=O)c1ccco1 (centres unmarked),-7.46
16,Cc1nc(SCC(=O)NC2CCCC2)nc(O)c1Cc1ccccc1,-0.45
17,COc1cccc(OCC(=O)N(Cc2nc(-c3cccc(C)c3)no2)C(C)C)c1,-0.646
18,COc1ccc(S(=O)(=O)N2CCC(CN3C(=O)c4cccc5cccc(c45)C3=O)CC2)cc1,4.75
19,CC(C)NC(=O)c1cnn2c(C(F)(F)F)cc(-c3cccs3)nc12,3.76
20,c1ccc(-c2nnc3sc(-c4cnccn4)nn23)cc1,0.0539
21,CCOc1ccc2nc(SCC(=O)NCc3ccc4c(c3)OCO4)sc2c1,-4.28
22,O=C(C(Cc1ccccc1)NS(=O)(=O)c1cccs1)N1CCCCCC1 (centres unmarked),-6.5
23,O=C(O)COC(c1ccccc1)C(F)(F)F (centres unmarked),-7.55

row,Structure (SMILES),% Inhibition @ 10 uM [%]
1,CC1(C)OCCN1C(=O)C(=O)c1c[nH]c2ccccc12,-2.68
2,CC1=C(C(=O)OC2CCCCC2)C(c2cccc(Cl)c2Cl)C2=C(O)CC(C)(C)CC2=N1 (centres unmarked),2.78
3,Cc1ccc(C(=O)N/C(=C\c2ccco2)C(=O)Nc2ccccc2)cc1C,-4.49
4,Cc1ccc(-c2cc(C(=O)NC3CC3)c3ccccc3n2)o1,3.36
5,Cc1c(CN2CCC(N3CCCCC3)CC2)c(=O)n(-c2ccccc2)n1C,3.15
6,Nc1no[n+]([O-])c1C(=O)NCC(CC(=O)O)c1ccccc1 (centres unmarked),6.17
7,COc1ccc(NC(=O)c2cc3ccccc3oc2=O)cc1,-2.28
8,COc1ccc(C2=NCCn3cccc32)cc1,3.16
9,CCc1ccc(-c2cc3c(=O)n(CC(=O)NCc4cccc(Cl)c4)nc(C)n3n2)cc1,3.87
10,COc1ccc(C(=O)O/N=C(\N)c2ccc(Br)cc2)c(OC)c1,-1.17
11,COc1ccccc1-c1nnc2n(Cc3ccc(C)cc3)c(=O)c3ccccc3n12,-1.72
12,C=CCNC(=O)COc1ccc(-c2ccc(C#N)cc2)cc1,-4.66
13,COc1cccc(C2c3c(oc4ccccc4c3=O)C(=O)N2Cc2ccccc2)c1 (centres unmarked),-0.519
14,CCc1nc2ccccc2c(NC(=O)CNC(C)Cc2ccccc2)c1C (centres unmarked),-1.42
15,CCCNc1ncnc2c1cnn2-c1ccccc1,32.9
16,Cc1nn(CC(=O)N2CCC3(CC2)OCCO3)c(=O)c2nn(-c3ccccc3)c(C)c12,-1.57
17,CCCN(CCC)C(=O)Cn1c(=O)n(CCOC)c(=O)c2sc3ccccc3c21,-1.21
18,FC(F)(F)C1(C(F)(F)F)N=C(c2cccnc2)OC(N2CCCCC2)=N1,-1.72
19,N#Cc1c2c(c(NCCN3CCCCC3)n3c1nc1ccccc13)CCC2,2.09
20,CCN(CC)C(=O)/C(=C/c1ccccc1)NC(=O)c1cccc(Br)c1,-1.07
21,COc1ccc(-c2cc(C(F)F)n3ncc(C(=O)Nc4cc(C)ccc4OC)c3n2)cc1,-3.65
22,CCn1cc(C=C2C(=O)NC(=O)NC2=O)c2ccccc21,-1.25
23,CCCN1C(=O)c2[nH]nc(-c3c(C)cc(C)cc3O)c2C1c1cccc(O)c1 (centres unmarked),1.67

row,Structure (SMILES),% Inhibition @ 10 uM [%]
1,Cc1cccc(CCNC(=O)NCc2noc3ccccc23)c1,0.857
2,Cc1cccc(C(=O)Nc2ccc(S(=O)(=O)N3CCCCC3)cc2)c1,-1.28
3,CC(CCc1ccccc1)NC(=O)C1CCN(S(=O)(=O)N2CCOCC2)CC1 (centres unmarked),-3.12
4,c1ccc(-c2cn(-c3ccccc3)nc2-c2ccccc2)cc1,-0.744
5,CCOc1ccc(N2C(=O)c3ccc([N+](=O)[O-])cc3C2=O)cc1,-0.268
6,O=C(Cc1nc2ccccc2[nH]1)N1CCCCC1,2.22
7,CC1CCN(CCCNC(=O)c2coc3nc4ccccc4nc23)CC1,-0.971
8,Cc1c2cnn(CC(=O)N3CCN(C4CCCCC4)CC3)c(=O)c2c(C)n1Cc1ccc(F)cc1,-0.447
9,Cc1cc(C)c(C(=O)/C=C/c2ccccn2)c(O)n1,-1.93
10,CCn1c2ccccc2c2nnc(N3CCN(c4ccccn4)CC3)nc21,-5.66
11,CC(C)(C)c1cc(-c2nnc(S)n2-c2ccccc2F)[nH]n1,5.5
12,O=C(Nc1nnc(C23C[C@H]4C[C@@H](C2)C[C@@H](C3)C4)s1)C(=O)c1c[nH]c2ccccc12,0.655
13,O=S(=O)(O)c1cc(-n2nc3c(c2O)CCC3)ccc1Oc1ccccc1,4.7
14,CCCCn1c(CN2C(=O)c3ccccc3C2=O)nc2ccccc2c1=O,-0.992
15,Cc1c(Cl)cccc1NC(=O)c1cc2nc(C(F)F)cc(C(F)F)n2n1,-2.85
16,CCN(CC)CCSc1nc2cc(C)c(C)cc2[nH]1,-0.267
17,CCOC(=O)N1CCN(CC[C@@H](C)CCC=C(C)C)CC1,-3.8
18,NC(=O)c1ccc(NC(=O)CNS(=O)(=O)c2ccc(Cl)cc2)cc1,-6.25
19,O=C(c1nc2nc(-c3ccccc3)cc(C(F)(F)F)n2n1)N1CCOCC1,1.04
20,CN(C)C(=O)N1CCCC(C(=O)NCc2cccs2)C1 (centres unmarked),-1.34
21,CCCOc1ccc(N2C(=O)CC(N3CCCCC3)C2=O)cc1 (centres unmarked),-0.996
22,Cc1cc(N)ccc1NC(=O)c1ccccc1Cl,4.31
23,COc1ccc(/C=C2\SC(c3ccccc3)=NC2=O)cc1C,8.74

row,Structure (SMILES),% Inhibition @ 10 uM [%]
1,N#C/C(=C\c1ccncc1)c1nc2ccccc2[nH]1,2.8
2,O=C(c1ccc(COc2ccc(Cl)cc2)o1)N1N=C(C(F)F)CC1(O)C(F)F (centres unmarked),-4.15
3,Cn1ncc([N+](=O)[O-])c1C(=O)Nc1ccc(C2CCCCC2)cc1,2.38
4,CC(Sc1nc2sc3c(c2c(=O)n1-c1ccccc1)CC(C)(C)OC3)C(=O)O (centres unmarked),-3.26
5,CCC(C)N(CCNC(=O)c1ccc2nc(N3CCOCC3)sc2c1)C1CCCCC1 (centres unmarked),5.73
6,NS(=O)(=O)c1ccc(CCNC(=O)Cn2c(=O)c3cccn3c3cccnc32)cc1,-4.46
7,Cc1nc2ccccn2c(=O)c1C(=O)O,3.24
8,CCN(CC)c1ccc(/C=c2\sc3nc4ccccc4n3c2=O)c(O)c1,3.15
9,O=C(O)c1ccc(CNS(=O)(=O)c2ccc(C(=O)O)cc2)cc1,-6.82
10,O=C(CSc1nc[nH]n1)c1ccc(Br)cc1,2.3
11,COc1ccc(CNCc2ccccc2OC)cc1,-7.94
12,O=C(NC1(C(F)(F)F)NC(=O)N(Cc2ccccc2)C1=O)c1ccccc1Cl (centres unmarked),-1.52
13,Cc1ccc(CSc2nc3ccc(C(=O)NCCCN4CCCC4=O)cc3n2C)cc1,5.82
14,CC(NC(=O)COc1ccc(-c2nn(C)c(=O)c3ccccc23)cc1)c1ccccc1 (centres unmarked),-3.23
15,Cc1cccn2c(=O)c3cc(C(=O)NCC4CCCO4)c(=N)n(Cc4cccnc4)c3nc12 (centres unmarked),-1.69
16,CC(C)COc1ccc2c(c1)c1c(n2C)C(=O)CCC1,6.06
17,COCCN1C=C(C(=O)OC)C(c2ccc(OC)c(O)c2)C(C(=O)OC)=C1,-1.33
18,CC(C)c1ccc(NC(=O)NC2CCCCC2)cc1,-0.351
19,O=C1CC(Cc2ccc(Cl)cc2)C(=O)N1c1ccc(Cl)cc1 (centres unmarked),-1.42
20,COCCCNC(=O)Cn1c(C)c(C(=O)C(F)(F)F)c2ccccc21,-5.1
21,CCCCOc1ccc2ccccc2c1/C=C1\SC(=O)NC1=O,-0.736
